# Laboratory results as given in article PMC4336329 (PLoS ONE, 2015).
# About 2,200 (0.71%) of roughly 310,000 compounds showed an effect of 50% or more. The effect is printed as a negative number. The list shows a part of the results.
# Target: human ether-à-go-go-related gene (hERG) potassium channel (human, UniProt Q12809)
# Experiment: primary screen, population patch clamp on CHO cells stably expressing hERG
# Sequence of human ether-à-go-go-related gene (hERG) potassium channel (Q12809 whole entry, looked up): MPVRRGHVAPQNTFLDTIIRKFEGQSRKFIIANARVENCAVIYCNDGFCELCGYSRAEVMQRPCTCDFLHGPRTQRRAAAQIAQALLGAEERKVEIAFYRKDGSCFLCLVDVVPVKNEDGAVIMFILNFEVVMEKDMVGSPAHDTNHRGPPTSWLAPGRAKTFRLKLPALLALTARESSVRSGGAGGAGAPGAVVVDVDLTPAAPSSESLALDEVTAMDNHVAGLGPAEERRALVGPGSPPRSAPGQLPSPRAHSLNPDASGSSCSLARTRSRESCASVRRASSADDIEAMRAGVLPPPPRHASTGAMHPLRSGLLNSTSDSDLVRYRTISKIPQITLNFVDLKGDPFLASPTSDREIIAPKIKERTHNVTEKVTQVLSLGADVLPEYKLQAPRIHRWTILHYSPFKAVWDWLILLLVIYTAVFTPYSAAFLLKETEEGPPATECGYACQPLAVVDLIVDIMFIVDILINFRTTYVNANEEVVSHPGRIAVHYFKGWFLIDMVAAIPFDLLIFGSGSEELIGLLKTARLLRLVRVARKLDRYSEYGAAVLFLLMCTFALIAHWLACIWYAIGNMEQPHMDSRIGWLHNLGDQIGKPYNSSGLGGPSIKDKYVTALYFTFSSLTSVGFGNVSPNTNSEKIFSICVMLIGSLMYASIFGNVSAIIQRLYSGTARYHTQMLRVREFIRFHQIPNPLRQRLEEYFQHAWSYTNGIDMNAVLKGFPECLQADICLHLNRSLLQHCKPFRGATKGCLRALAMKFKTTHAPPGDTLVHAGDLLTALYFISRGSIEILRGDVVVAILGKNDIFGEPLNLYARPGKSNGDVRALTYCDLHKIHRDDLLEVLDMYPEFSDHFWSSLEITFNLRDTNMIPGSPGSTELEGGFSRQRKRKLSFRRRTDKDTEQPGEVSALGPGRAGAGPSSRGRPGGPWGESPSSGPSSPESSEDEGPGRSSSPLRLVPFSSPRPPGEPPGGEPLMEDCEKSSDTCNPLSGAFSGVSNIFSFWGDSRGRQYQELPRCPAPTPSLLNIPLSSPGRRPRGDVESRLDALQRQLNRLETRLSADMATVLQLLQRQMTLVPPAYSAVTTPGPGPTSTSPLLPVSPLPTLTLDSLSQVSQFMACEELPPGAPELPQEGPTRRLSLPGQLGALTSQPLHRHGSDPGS
row,Compound,"hERG current change (%, negative = inhibition) at 1uM"
1,COc1ccc(C(=O)NCCn2cc(SCC(=O)NCC3CCCO3)c3ccccc32)cc1OC (stereo not drawn),2.39%
2,Cc1nc2ccccc2c(=O)n1CCc1ccc(O)cc1,11.3%
3,O=c1c(O)c(-c2cccs2)oc2ccccc12,1.67%
4,COc1ccc(CN(C)S(=O)(=O)c2nnc(NC(=O)c3ccccc3Br)s2)cc1,9.17%
5,O=C(O)c1ccc(NC(=O)C2CCCCC2)cc1,-0.767%
6,COC(=O)c1c(C(=O)OC)c2cccc3cc(-c4ccccc4)c4ccc1c4n32,12.9%
7,CC(=O)c1ccc(N2CCN(CC(=O)Nc3ccccc3C(=O)NC3CC3)CC2)c(F)c1,-5.91%
8,CCCc1c(C(=O)NNc2cc(C(F)(F)F)ccc2Cl)cnn1-c1ccccc1,16.6%
9,Cc1ccc(-c2cc(C(=O)O)c3cc(Br)ccc3n2)o1,12.9%
10,CCOc1ccccc1-c1nc(-c2ccc(C)nc2OC)no1,7.25%
11,Cc1nnc(SCC(=O)OC2CC(C)CCC2C(C)C)[nH]c1=O (stereo not drawn),12.6%
12,Cc1cccc2c1-c1sc(C(=O)NCCCN3CCCC(C)C3)cc1CO2 (stereo not drawn),16.2%
13,Cc1ccc2[nH]c3c(c2c1)CNCC3.Cl,17.8%
14,Cc1cc(C)n(-c2nc(C)nc(N)n2)n1,13.2%
15,COc1ccc(CN(CCN2CCOCC2)C(=O)c2c(F)cccc2F)cc1OC.Cl,-3.02%
16,CC(=O)NCC(=O)N(C)C(C(=O)Nc1ccc2c(c1)OCCO2)c1ccccc1 (stereo not drawn),8.77%
17,Cn1c(C(=O)NC2CC2)cc2c(=O)n(C)c3ccccc3c21,7.46%
18,CC1(C)CC(=O)C2=C(C1)NC(=O)C21C(C(=O)OC(C)(C)C)=C(N)Oc2ccc(Br)cc21 (stereo not drawn),-0.34%
19,Cc1cc(C)n2nc(C(=O)Nc3ccn(Cc4ccccc4C)n3)cc2n1,12.2%
20,COc1ccc(-n2c(=S)[nH]c3sc4c(c3c2=O)CCN(C)C4)cc1,16.9%
21,COc1ccccc1/C=C\C=N\NC(=O)CCn1nnc2ccccc21,9.61%
22,CC(=O)N[C@@H](C)c1nc2ccccc2n1CCCN1CCN(c2nc(-c3ccc(C)cc3)cs2)CC1,2.16%

row,Compound,"hERG current change (%, negative = inhibition) at 1uM"
1,O=C(/C=C/c1ccco1)N(Cc1cccc(F)c1)C1CCS(=O)(=O)C1 (stereo not drawn),6.89%
2,Cc1ccc(-c2cc(-c3ccco3)c3c(N)c(C(=O)NN)oc3n2)cc1,11.4%
3,COc1cc(OC)c(OC)cc1CNC(=O)c1cc(S(=O)(=O)N2CCOCC2)ccc1F,-1.57%
4,COC(=O)CCC(NC(=O)c1cc(-c2ccc3c(c2)OCCO3)oc1C)C(=O)OC (stereo not drawn),7.54%
5,CCCCn1c(N)c(N(CCOC)C(=O)CSCc2ccccc2C)c(=O)[nH]c1=O,-5.21%
6,Cc1nn(Cc2ccccc2)c(Cl)c1C(=O)NCc1ccc(C)n1C,-7.78%
7,O=C(Nc1ccc(N2CCOCC2)cc1)C1CC(=O)N(c2ccccc2)C1 (stereo not drawn),-7.38%
8,COc1cc(CNC(=O)c2ccccc2NC(=O)C2=C(C)OCCS2)cc(OC)c1OC,15.8%
9,O=C(O)CCCC(=O)N1CC(=O)Nc2ccccc21,10.5%
10,COc1ccc(C2=NOC(C(=O)NCc3ccco3)C2)cc1OC (stereo not drawn),-5.49%
11,COc1ccc(-n2nc(C(=O)NCC(=O)NCc3cccc(F)c3)c3ccccc3c2=O)cc1Cl,9.88%
12,COCc1cc(CN2CCCC(C(=O)Nc3cccc(-n4cnnn4)c3)C2)ccc1OC (stereo not drawn),8.23%
13,Cc1nn(-c2ccccc2)c(C)c1/C=N/NC(=O)CSc1nnc(-c2ccccc2)n1-c1ccc(Cl)cc1,13.5%
14,COc1ccc(C(=O)OCCCc2cc3ccccc3c(=O)o2)cc1,4.19%
15,Cc1cccc(NC(=O)c2ccccc2NC(=O)C(C)(C)C)n1,9.48%
16,O=C(Oc1ccccc1)N1CCN(c2ccc(F)cc2)CC1,0.535%
17,Nc1nc(-c2ccc(Br)cc2)c(S(=O)(=O)c2ccccc2)s1,4.37%
18,CCOc1ccccc1C(=O)Oc1cc(C)[nH]c(=O)c1[N+](=O)[O-],10.6%
19,COc1ccc(-c2c([C@H]3[C@H]4C=CC[C@@H](C)[C@@H]4C(=O)N3Cc3ccccc3)ccc3ccccc23)cc1OC,12%
20,COc1cccc(-n2sc3c(c2=S)-c2cc(OC)ccc2NC3(C)C)c1,8.2%
21,COc1ccc(CNC(=O)c2ccc(CS(=O)Cc3ccc(Cl)cc3)o2)cc1 (stereo not drawn),-11.4%
22,Cc1ccc(C)c(C(=O)COC(=O)c2cccc(N3C(=O)c4c(C)nc5ccccc5c4C3=O)c2)c1,27.9%

row,Compound,"hERG current change (%, negative = inhibition) at 1uM"
1,Fc1ccc(N2CCN(Cc3cnc(Cl)s3)CC2)cc1,9.97%
2,CC(NS(=O)(=O)c1ccc(OCC(=O)NCc2ccncc2)cc1)c1ccccc1 (stereo not drawn),16%
3,COc1ccc(Cl)cc1NC(=S)NC(=O)c1ccc2c(c1)OCO2,15.2%
4,C=CCn1c(CCNC(=O)C(C)(C)C)nc2ccccc21,13.5%
5,COc1cccc(CNC(=O)c2ccc(NC(=O)C3=CSCCO3)cc2)c1,17%
6,COCCCN(C(=S)NC(=O)C(C)(C)C)c1c(N)n(Cc2ccccc2)c(=O)[nH]c1=O,17%
7,Cc1ccccc1C(=O)Nc1nnc(CC(=O)N/N=C/c2ccncc2)s1,13.9%
8,COc1ccc(NC(=O)CN(c2ccc(OC)cc2)S(=O)(=O)c2c(C)nn(C)c2C)cc1,14.3%
9,CCn1c(SCC(=O)C(C)(C)C)nnc1-c1ccccn1,15.9%
10,O=C1N/C(=N\N=C\c2cccs2)SC1Cc1ccc(Cl)cc1 (stereo not drawn),-1.78%
11,CCOC(=O)c1ccc(NC(=O)CC2C(=O)OCCN2CC)cc1 (stereo not drawn),8.02%
12,CCC(=O)N1CCN(c2ccc(Cl)cc2NC(=S)NC(=O)c2ccco2)CC1,6.25%
13,O=S(=O)(NCCc1ccccn1)c1ccc(OC(F)(F)F)cc1,11.4%
14,Cc1csc(SCC(=O)NC23CC4CC(CC(C4)C2)C3)n1,-5.7%
15,O=C(COc1ncnc2ccccc12)Nc1ccccc1[N+](=O)[O-],4.24%
16,O=C1Nc2ccccc2C12Nc1ccccc1S2 (stereo not drawn),4.9%
17,CC12CC3(C)CC(C)(C1)CC(C(=O)NC(=S)NC(C)(C)C)(C2)C3,9.73%
18,CCCSc1nnc(NC(=O)Nc2ccccc2OC)s1,16.9%
19,O=C(CCc1ccc(S(=O)(=O)N2CCOCC2)cc1)N/N=C/c1ccc(F)cc1F,1.78%
20,CCCNC(=O)c1ccccc1NS(=O)(=O)c1ccc(OC)c(OC)c1,-5.14%
21,CC1=C(C(=O)N2CCCC(CCC(=O)NCc3ccc(F)c(F)c3)C2)OCCO1 (stereo not drawn),13.8%
22,COc1ccc(S(=O)(=O)N2CCOCC2)cc1NC(=O)CSc1nnc2c(n1)[nH]c1ccccc12,5.29%

row,Compound,"hERG current change (%, negative = inhibition) at 1uM"
1,Cc1cc(C)c[n+](CC(=O)c2ccc(C)c([N+](=O)[O-])c2)c1.[Br-],4.61%
2,Cc1c(O)c2ccccc2oc1=O,9.48%
3,CC(=O)N1c2ccc(S(=O)(=O)N3CCCC(C(=O)Nc4ccc(C)cc4C)C3)cc2CC1C (stereo not drawn),9.24%
4,COc1cccc(-c2nnc(NC(C)=O)o2)c1,2.28%
5,Oc1ccccc1-c1nc(NCC2CCCO2)c2ccccc2n1 (stereo not drawn),16.6%
6,O=C1c2ccccc2C(=O)N1c1cccc2ccccc12,6.93%
7,O=C(Nc1ccccc1C(=O)N1CCCC1)c1ccc(Cl)c([N+](=O)[O-])c1,7.51%
8,O=C(COC(=O)Cc1cccs1)Nc1ccc(OC(F)(F)F)cc1,8.83%
9,O=C(Cc1ccc([N+](=O)[O-])cc1)Nc1cccc(C(F)(F)F)c1,2.82%
10,CCOC(=O)C(NC(C)=O)(N1CCOCC1)C(F)(F)F (stereo not drawn),17.2%
11,CN(C)c1ccc(C(O)P(=O)(OCc2ccccc2)c2ccc(N(C)C)cc2)cc1 (stereo not drawn),13.8%
12,Cc1ccc(S(=O)(=O)NCC(=O)NC2CCCCCC2)cc1,-9.47%
13,Cl.O=C(Cc1ccccc1)NC1CCN(Cc2ccccc2)CC1,12.9%
14,CCCCn1c(SCC(N)=O)nnc1-c1ccco1,6.2%
15,CCOC(=O)c1ccccc1NC(=O)CN(c1ccccc1C)S(C)(=O)=O,13.2%
16,C=CCOC(=O)C1=C(C)NC(C)=C(C(=O)OCC=C)C1c1cn(-c2ccccc2)nc1-c1ccco1,9.72%
17,Cc1ccccc1-n1c(SCC(=O)Nc2c(C)cccc2C)nc(O)cc1=O,12.8%
18,CCOc1ccc2nc(SCC(=O)NCc3ccc(S(N)(=O)=O)cc3)sc2c1,8.59%
19,CC(=O)NCCC(=O)Nc1nc(-c2ccccc2Cl)cs1,2.26%
20,Cc1ccc(C)n1-c1cccc(NC(=O)c2ccccc2)c1,2.67%
21,CCOC(=O)c1c(C)[nH]c(C(=O)COC(=O)C2(C)CC2(Cl)Cl)c1C (stereo not drawn),-11.7%
